Measurements published in PubChem BioAssay AID2451 (National Center for Advancing Translational Sciences (NCATS), 2010).
The whole screen tested about 290,000 compounds, of which about 2,100 (0.72%) were called active. Inconclusive means that the source gave no clear call. Such entries were picked first, then a sample of the others. Calls follow the shape of the dose curve; as a rule, active = well fitted inhibition curve with a large enough effect; inconclusive = small, poorly fitted or top-dose-only effect, or effect the other way; inactive = flat fitted curve, though single readings scatter. Potencies of inconclusive entries are doubtful fits and often do not repeat.
% is scaled to controls: 0 for no effect and ±100 for the full control effect; potency is read from the fitted curve at half-maximal effect; tags tell the direction and shape of the fitted curve.
Also: nearly all actives have a fitted effect of over 55% in size.

The compounds below were run against Fructose-bisphosphate aldolase (Giardia intestinalis (strain ATCC 50803 / WB clone C6)) (UniProt A8B2U2) (assay: qHTS Assay for Inhibitors of Fructose-1,6-bisphosphate Aldolase from Giardia Lamblia). Conditions: purified Giardia FBPA; activity, negative = inhibition: at 59.6 µM (top of the series) unless noted.
UniProt A8B2U2, sequence (A8B2U2 whole entry, looked up): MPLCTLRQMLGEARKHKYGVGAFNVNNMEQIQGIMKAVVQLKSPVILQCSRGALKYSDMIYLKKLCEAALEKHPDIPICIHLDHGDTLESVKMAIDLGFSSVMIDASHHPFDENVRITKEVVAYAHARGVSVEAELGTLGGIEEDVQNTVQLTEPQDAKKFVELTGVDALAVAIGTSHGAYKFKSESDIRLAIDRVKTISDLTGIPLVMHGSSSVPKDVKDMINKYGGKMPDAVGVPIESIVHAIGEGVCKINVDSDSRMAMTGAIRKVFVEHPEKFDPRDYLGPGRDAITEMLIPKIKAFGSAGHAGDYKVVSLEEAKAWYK
Method in brief: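 Giardia FBPA (40 nM reagent) was preincubated 10 min at RT with compound (up to 57.5 uM final), then substrate plus GAPDH/TPI/NAD/arsenate coupling system with diaphorase/resazurin was added; resorufin fluorescence (525/598 nm) was read after 20 min.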
With COc1ccc(C(=O)NC(=S)Nc2cc(C)ccn2)cc1[N+](=O)[O-] the Potency was inconclusive: 3.15 µM [inhibitor, full curve]. COc1ccc2cc(C3C(C#N)=C(N)OC(C)=C3C(C)=O)c(Cl)nc2c1 (stereo unspecified) was tested, and the Potency was inconclusive: 15.8 µM [inhibitor, single point]. In the case of CCOc1cc(N2CCOCC2)c(OCC)cc1NC(=O)c1cc(C)cc(C)c1, the “activity, negative = inhibition” value is reported as inactive: -5.46%. NC1=NN=C(N2N=C(c3ccccc3)CC2(O)C(F)(F)F)n2ncnc2C1 (stereo unspecified) was tested, and the Potency was inconclusive: 3.15 µM [inhibitor, full curve]. O=C(c1cnc(N2CCN(c3ncccn3)CC2)c2ccccc12)N1CCN(c2ncccn2)CC1 was tested, and the “activity, negative = inhibition” value was inactive: 0.99%. CN(CC(=O)Nc1n[nH]c(=S)s1)S(=O)(=O)c1cccc2cccnc12 was tested, and the Potency was inconclusive: 39.8 µM [inhibitor, single point]. CCOC(=O)c1c(/N=C/c2c(O)n(-c3ccccc3F)c(=S)[nH]c2=O)sc2c1CCCC2 was tested, and the Potency was active: 17.7 µM. In the case of CC(C)(C)NCCOCCOc1ccc(Cl)cc1C(C)(C)C, the Potency is reported as inconclusive: 25.1 µM [inhibitor, partial curve]. With Cc1c(N=C2C=C(Br)C(=O)C(Br)=C2)c(=O)n(-c2ccccc2)n1C the Potency was active: 14.1 µM. With CC1(CCl)N([O-])C2=C(CCCC2)[N+]1=O (stereo unspecified) the Potency was inconclusive: 17.7 µM [inhibitor, single point]. For CCOc1ccc(N2CC(C(=O)N3CC(C)OC(C)C3)CC2=O)cc1 (stereo unspecified), the “activity, negative = inhibition” value was inactive: -8.04%. With C1=C(c2ccco2)N2CCN=C2S1 the Potency was inconclusive: 31.6 µM [inhibitor, single point]. With Cc1cc(C)cc(NC(=O)Nc2ccc(N3CCCCC3)cc2)c1 the “activity, negative = inhibition” value was inactive: -2.29%. In the case of CC(=O)N1N=C(c2ccc(C)cc2)OC1c1ccc(Br)cc1 (stereo unspecified), the Potency is reported as inconclusive: 31.5 µM [inhibitor, single point]. O=C(CN1CCNCC1)NCCSc1ccc(Cl)cc1 was tested, and the “activity, negative = inhibition” value was inactive: 0.0903%. COc1cc(CNCc2ccc3c(c2)OCO3)c([N+](=O)[O-])cc1OC was tested, and the Potency was inconclusive: 25.1 µM [inhibitor, partial curve]. Cc1cccc2sc(N(CCCN(C)C)C(=O)CCc3ccccc3)nc12 was tested, and the “activity, negative = inhibition” value was inactive: -1.75%. In the case of CC(C)CC(=O)/C(=C/c1ccc(N(C)C)cc1)n1cncn1, the “activity, negative = inhibition” value is reported as inactive: -1.09%. O=C(Cc1ccc([N+](=O)[O-])cc1)N1CCc2ccccc2C1 was tested, and the “activity, negative = inhibition” value was inactive: -0.0455%. With Cc1nc2c3ccccc3nc(SCC(=O)c3ccc(Cl)cc3)n2n1 the Potency was inconclusive: 35.4 µM [inhibitor, single point]. With CC1=C(C(=O)O)N2C(=O)C(NC(=O)C(N)c3ccccc3)C2SC1 (stereo unspecified) the Potency was inconclusive: 11.2 µM [inhibitor, partial curve].
